# In the supplement of paper PMC8728848:
# The other results are listed elsewhere or left out.
# B1: Banana lectin (Musa acuminata) (protein)
# chain: MNGAIKVGAWGGNGGSAFDMGPAYRIISVKIFSGDVVDGVDVTFTYYGKTETRHYGGSGGTPHEIVLQEGEYLVGMAGEVANYTGAVVLGKLGFSTNKKAYGPFGNTGGTPFSLPIAAGKISGFFGRGGKFLDAIGVYLEPLEHHHHHH
# Experiments:
# Test in all cases: glycan array binding signal (z-score within array); higher = stronger binding
# Conditions in all cases: glycan notation: IUPAC condensed, linker removed; mutation: H84T
# [1] = biological target: Gal(b1-4)GlcNAc(b1-2)Man(a1-6)[GlcNAc(b1-2)Man(a1-3)]Man(b1-4)GlcNAc(b1-4)GlcNAc
# Outline: (§1)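 Columns mapping to the same glycan were averaged after glycan names were converted to IUPAC-condensed notation. The data come from 3228 arrays in the Consortium for Functional Glycomics database, limited to those with an available protein sequence. Binding is reported as a within-array Z-score averaged across arrays of one protein sequence and across linkers.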
# [2] = biological target: Gal(b1-4)GlcNAc(b1-2)Man(a1-6)[Man(a1-3)]Man(b1-4)GlcNAc(b1-4)GlcNAc
# Outline: as §1
# [3] = biological target: Gal(b1-4)GlcNAc(b1-2)[Gal(b1-4)GlcNAc(b1-4)]Man(a1-3)[Gal(b1-4)GlcNAc(b1-2)Man(a1-6)]Man(b1-4)GlcNAc(b1-4)GlcNAc
# Outline: as §1
# [4] = biological target: Gal(b1-4)GlcNAc(b1-2)[Gal(b1-4)GlcNAc(b1-4)]Man(a1-3)[Gal(b1-4)GlcNAc(b1-2)[Gal(b1-4)GlcNAc(b1-6)]Man(a1-6)]Man(b1-4)GlcNAc(b1-4)GlcNAc
# Outline: as §1
# [5] = biological target: Gal(b1-4)GlcNAc(b1-2)[Gal(b1-4)GlcNAc(b1-4)]Man(a1-3)[GlcNAc(b1-4)][Gal(b1-4)GlcNAc(b1-2)Man(a1-6)]Man(b1-4)GlcNAc(b1-4)GlcNAc
# Outline: as §1
# [6] = biological target: Gal(b1-4)GlcNAc(b1-2)[Gal(b1-4)GlcNAc(b1-4)]Man(a1-3)[GlcNAc(b1-4)][Gal(b1-4)GlcNAc(b1-2)[Gal(b1-4)GlcNAc(b1-6)]Man(a1-6)]Man(b1-4)GlcNAc(b1-4)GlcNAc
# Outline: as §1
# [7] = biological target: Gal(b1-4)GlcNAc(b1-2)[Gal(b1-4)GlcNAc(b1-6)]Man(a1-6)[Gal(b1-4)GlcNAc(b1-2)Man(a1-3)]Man(b1-4)GlcNAc(b1-4)GlcNAc
# Outline: as §1
# [8] = biological target: Gal(b1-4)GlcNAc(b1-2)[Gal(b1-4)GlcNAc(b1-6)]Man(a1-6)[Gal(b1-4)GlcNAc(b1-2)Man(a1-3)]Man(b1-4)GlcNAc(b1-4)[Fuc(a1-6)]GlcNAc
# Outline: as §1
# [9] = biological target: Gal(b1-4)GlcNAc(b1-2)[Gal(b1-4)GlcNAc(b1-6)]Man(a1-6)[GlcNAc(b1-4)][Gal(b1-4)GlcNAc(b1-2)Man(a1-3)]Man(b1-4)GlcNAc(b1-4)GlcNAc
# Outline: as §1
# [10] = biological target: Gal(b1-4)GlcNAc(b1-2)[Gal(b1-4)GlcNAc(b1-6)]Man(a1-6)[GlcNAc(b1-4)][Gal(b1-4)GlcNAc(b1-2)[Gal(b1-4)GlcNAc(b1-4)]Man(a1-3)]Man(b1-4)GlcNAc(b1-4)[Fuc(a1-6)]GlcNAc
# Outline: as §1
# [11] = biological target: Gal(b1-4)GlcNAc(b1-3)Gal(b1-3)GalNAc
# Outline: as §1
# [12] = biological target: Gal(b1-4)GlcNAc(b1-3)Gal(b1-3)GlcNAc
# Outline: as §1
# [13] = biological target: Gal(b1-4)GlcNAc(b1-3)Gal(b1-4)Glc
# Outline: as §1
# [14] = biological target: Gal(b1-4)GlcNAc(b1-3)Gal(b1-4)GlcNAc
# Outline: as §1
# [15] = biological target: Gal(b1-4)GlcNAc(b1-3)Gal(b1-4)GlcNAc(b1-2)Man(a1-3)[Gal(b1-4)GlcNAc(b1-3)Gal(b1-4)GlcNAc(b1-2)Man(a1-6)]Man(b1-4)GlcNAc(b1-4)GlcNAc
# Outline: as §1
# [16] = biological target: Gal(b1-4)GlcNAc(b1-3)Gal(b1-4)GlcNAc(b1-2)Man(a1-3)[Gal(b1-4)GlcNAc(b1-3)Gal(b1-4)GlcNAc(b1-2)Man(a1-6)]Man(b1-4)GlcNAc(b1-4)[Fuc(a1-6)]GlcNAc
# Outline: as §1
# [17] = biological target: Gal(b1-4)GlcNAc(b1-3)Gal(b1-4)GlcNAc(b1-2)[Gal(b1-4)GlcNAc(b1-3)Gal(b1-4)GlcNAc(b1-6)]Man(a1-6)[Gal(b1-4)GlcNAc(b1-3)Gal(b1-4)GlcNAc(b1-2)Man(a1-3)]Man(b1-4)GlcNAc(b1-4)GlcNAc
# Outline: as §1
# [18] = biological target: Gal(b1-4)GlcNAc(b1-3)Gal(b1-4)GlcNAc(b1-2)[Gal(b1-4)GlcNAc(b1-3)Gal(b1-4)GlcNAc(b1-6)]Man(a1-6)[Gal(b1-4)GlcNAc(b1-3)Gal(b1-4)GlcNAc(b1-2)Man(a1-3)]Man(b1-4)GlcNAc(b1-4)[Fuc(a1-6)]GlcNAc
# Outline: as §1
# [19] = biological target: Gal(b1-4)GlcNAc(b1-3)Gal(b1-4)GlcNAc(b1-3)Gal(b1-4)GlcNAc
# Outline: as §1
# [20] = biological target: Gal(b1-4)GlcNAc(b1-3)Gal(b1-4)GlcNAc(b1-3)Gal(b1-4)GlcNAc(b1-2)Man(a1-3)[Gal(b1-4)GlcNAc(b1-3)Gal(b1-4)GlcNAc(b1-3)Gal(b1-4)GlcNAc(b1-2)Man(a1-6)]Man(b1-4)GlcNAc(b1-4)GlcNAc
# Outline: as §1
# [21] = biological target: Gal(b1-4)GlcNAc(b1-3)Gal(b1-4)GlcNAc(b1-3)Gal(b1-4)GlcNAc(b1-2)Man(a1-3)[Gal(b1-4)GlcNAc(b1-3)Gal(b1-4)GlcNAc(b1-3)Gal(b1-4)GlcNAc(b1-2)Man(a1-6)]Man(b1-4)GlcNAc(b1-4)[Fuc(a1-6)]GlcNAc
# Outline: as §1
# [22] = biological target: Gal(b1-4)GlcNAc(b1-3)Gal(b1-4)GlcNAc(b1-3)Gal(b1-4)GlcNAc(b1-2)[Gal(b1-4)GlcNAc(b1-3)Gal(b1-4)GlcNAc(b1-3)Gal(b1-4)GlcNAc(b1-6)]Man(a1-6)[Gal(b1-4)GlcNAc(b1-3)Gal(b1-4)GlcNAc(b1-3)Gal(b1-4)GlcNAc(b1-2)Man(a1-3)]Man(b1-4)GlcNAc(b1-4)[Fuc(a1-6)]GlcNAc
# Outline: as §1
binder,measurement,setting,value
B1,glycan array binding signal (z-score),[1],-0.123
same,glycan array binding signal (z-score),[2],1.66
same,glycan array binding signal (z-score),[3],-0.139
same,glycan array binding signal (z-score),[4],-0.116
same,glycan array binding signal (z-score),[5],-0.143
same,glycan array binding signal (z-score),[6],-0.175
same,glycan array binding signal (z-score),[7],-0.198
same,glycan array binding signal (z-score),[8],-0.063
same,glycan array binding signal (z-score),[9],-0.098
same,glycan array binding signal (z-score),[10],-0.145
same,glycan array binding signal (z-score),[11],-0.181
same,glycan array binding signal (z-score),[12],-0.173
same,glycan array binding signal (z-score),[13],-0.169
same,glycan array binding signal (z-score),[14],-0.169
same,glycan array binding signal (z-score),[15],-0.136
same,glycan array binding signal (z-score),[16],-0.145
same,glycan array binding signal (z-score),[17],-0.045
same,glycan array binding signal (z-score),[18],-0.099
same,glycan array binding signal (z-score),[19],-0.166
same,glycan array binding signal (z-score),[20],-0.133
same,glycan array binding signal (z-score),[21],-0.097
same,glycan array binding signal (z-score),[22],-0.153
